Test results reported in publication PMC9911399, “Two distinct binding modes provide the RNA-binding protein RbFox with extraordinary sequence specificity”.
Numbering of substitutions follows the chain as printed; changes in the protein carry UniProt numbers. Some of the results follow.

T1: RBFOX1 RRM RbFoxmut (Fox-RRM*) (Homo sapiens, UniProt Q9NWB1 109-208, R118D;E147R;N151S;E152T)
T1 sequence: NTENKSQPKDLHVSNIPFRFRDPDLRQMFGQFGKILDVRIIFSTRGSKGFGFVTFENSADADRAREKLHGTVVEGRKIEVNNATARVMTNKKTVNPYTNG

B1: UGUUGUU (DNA:RNA)
RNA: GGGAGACCGGAAUUCAGAUUGUCCUGUUGUUUUAAAUCCCGUCGUAGCCACCA
DNA 1: CAATCTGAATTCCGGTCTCCC
DNA 2: TGGTGGCTACGACGGGATT
B2: GACUCUC (DNA:RNA)
RNA: B1 RNA with U25G, G26A, U27C, G29C, U31C
DNA 1: CAATCTGAATTCCGGTCTCCC
DNA 2: TGGTGGCTACGACGGGATT
B3: AAAGAGU (DNA:RNA)
RNA: B1 RNA with U25A, G26A, U27A, U28G, G29A, U30G
DNA 1: CAATCTGAATTCCGGTCTCCC
DNA 2: TGGTGGCTACGACGGGATT
B4: GAAGAUC (DNA:RNA)
RNA: B1 RNA with U25G, G26A, U27A, U28G, G29A, U31C
DNA 1: CAATCTGAATTCCGGTCTCCC
DNA 2: TGGTGGCTACGACGGGATT
B5: GCCGAAG (DNA:RNA)
RNA: GGGAGACCGGAAUUCAGAUUGUCCGCCGAAGUUAAAUCCCGUCGUAGCCACCA
DNA 1: CAATCTGAATTCCGGTCTCCC
DNA 2: TGGTGGCTACGACGGGATT
B6: CGGUUAU (DNA:RNA)
RNA: B1 RNA with U25C, U27G, G29U, U30A
DNA 1: CAATCTGAATTCCGGTCTCCC
DNA 2: TGGTGGCTACGACGGGATT
B7: AAGUGCA (DNA:RNA)
RNA: B1 RNA with U25A, G26A, U27G, U30C, U31A
DNA 1: CAATCTGAATTCCGGTCTCCC
DNA 2: TGGTGGCTACGACGGGATT
B8: AGGAAGC (DNA:RNA)
RNA: B5 RNA with G25A, C26G, C27G, G28A, A30G, G31C
DNA 1: CAATCTGAATTCCGGTCTCCC
DNA 2: TGGTGGCTACGACGGGATT
B9: AAGCGUU (DNA:RNA)
RNA: B1 RNA with U25A, G26A, U27G, U28C
DNA 1: CAATCTGAATTCCGGTCTCCC
DNA 2: TGGTGGCTACGACGGGATT

biological target: T1, RBFOX1 RRM RbFoxmut (Fox-RRM*); assay: EMSA; HiTS-Eq, 1 nM pool, 10 min; buffer printed only for the single-RNA assays: 10 mM Tris pH 7.5, 150 mM NaCl, 3.4 mM EDTA, 0.001% NP-40, 30 C; conditions: tags: His6 N-terminal (pET28a); label: 5' 32P
In short: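 Purified RbFox RRM (wild type or mutant) was equilibrated for 10 min in 50 µL with 1 nM of a 5′-radiolabelled pool of RNA with 7 randomized nucleotides, its flanks annealed to DNA oligonucleotides, across increasing protein concentrations. Free RNA was separated by 8% native PAGE, excised, reverse-transcribed, PCR-barcoded and sequenced on an Illumina HiSeq 2500. Relative association constants came from read-count changes of each variant against the control reaction, normalised to the cognate motif.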

| Binder | binding signal |
| --- | --- |
| B1 | 0.15 KA relative to UGCAUGU |
| B2 | 0.0318 KA relative to UGCAUGU |
| B3 | 0.116 KA relative to UGCAUGU |
| B4 | 0.0684 KA relative to UGCAUGU |
| B5 | 0.103 KA relative to UGCAUGU |
| B6 | 0.0817 KA relative to UGCAUGU |
| B7 | 0.157 KA relative to UGCAUGU |
| B8 | 0.0872 KA relative to UGCAUGU |
| B9 | 0.0979 KA relative to UGCAUGU |
